# Results from PMC12136788.
# The other results are listed elsewhere or left out.
# B1: chr11:46383557:46383658:+|3pUTR|ENSG00000110492|msi1_unk|total|mutant (ssRNA)
# RNA: GGGAGUUCUACAGUCCGACGAUCCCACGCCCUCCCUCUCCCAGGCCCGAGAUGUGACCCACCAGUGCCUUCUGUCUGCUCGUCCGCUUUAAUCAAUCAUGCCCUGCCUUGUCCCUCUCACUCCCCAGCCCCACCCCUAAGUGCCAACAGAGGAUUGAGCAUCA
# B2: chr17:4897770:4898853:-|three_prime_utr|ENSG00000108556|control|control|control (ssRNA)
# RNA: GGGAGUUCUACAGUCCGACGAUCUCCUCGGGGCCUACUUCAACCGAGUGCCUGAUCUCCCCUACGCGCCGUGUAUCCAGCCUUAGCUCGCACCGACUUCAAUUUCCCACCCAUCUCCAGUAGGAAAUUGAUUUUGAAAAAGUACAACAGAGGAUUGAGCAUCA
# B3: chr22:29555535:29555644:-|3pUTR|ENSG00000184117|unk|total|mutant (ssRNA)
# RNA: GGGAGUUCUACAGUCCGACGAUCUUCCUCAUCUCAAGGCCACCAGUCCCCAGUUAUCACCCUUGGAAAUCCUCUGUUCCGCUCCGUUGCACAAAAGGCCGUAUGUCCAGUGGCCCGAGGUGGGGUGGGAAGAGAGGAGGCCAGCAACAGAGGAUUGAGCAUCA
# B4: chr22:40825413:40825514:-|3pUTR|ENSG00000100380|msi1|total|mutant (ssRNA)
# RNA: GGGAGUUCUACAGUCCGACGAUCGGUAAUACCCACAACAACUGCCGUUUCUUACUUGGCCAAGAGAAUGCUUAUUUAAGUGUCCGACUUCCAUUCUGGCAAAAUCUUGCCUUAUCAGAAGACAUUGGAAAGAGGGAUUCCCUUCAACAGAGGAUUGAGCAUCA
# B5: chr3:27376575:27376676:-|3pUTR|ENSG00000033867|msi1|total|mutant (ssRNA)
# RNA: GGGAGUUCUACAGUCCGACGAUCCUAUAUAUAAGAAUAUUGUAUGUCAUGCUGUUUAUGUGUGACUACCGGGUUUUUAAAAGCCGUGUCUGGAGUUUGUAAUGAGCACCGUGGAGACUAUGUAUUUAAUGAAAUGCUCUCUUUCAACAGAGGAUUGAGCAUCA
# B6: chr8:143915815:143915916:-|3pUTR|ENSG00000178209|msi1|FALSE|unique (ssRNA)
# RNA: GGGAGUUCUACAGUCCGACGAUCGCCAGGUGCCUUGGAGGGUCCCAAGCUGGGCCCCAGCCCACCCUCCUGUCUUCCCAGGGUAGCCCGCCUGCCAGUCCUAGCUGCACAGGGCAGCUGGGCCCAACCCUGUCUGUAGAGGGCCAACAGAGGAUUGAGCAUCA
# B7: chr10:7163078:7163179:-|3pUTR|ENSG00000198879|unk|total|mutant (ssRNA)
# RNA: GGGAGUUCUACAGUCCGACGAUCAGAGGUGCCUUUCCGGAAUACGGGGAGUGAAGGAAGGCCGGCAGGCAUCUCCAUGCAACCCGAUGGUUUGUUUGUUUGUUUGUUUGUUUGUUGUUCAUUUUGUUGUGUUUUUUGAGACAGCAACAGAGGAUUGAGCAUCA
# B8: chr18:67512643:67512744:-|CDS|ENSG00000171451|unk|total|mutant (ssRNA)
# RNA: GGGAGUUCUACAGUCCGACGAUCGCCAUGAUGGAUGUGUGGGAUGCACAUUACAAAAUGUUUUGGUUUGAUCAUCAUGGCAACCGUCCCAUGGCCAGUAUACAGGAAGCAGAGCAAGCUGCUGAAUUUAAAAAACGAUGGACUCAACAGAGGAUUGAGCAUCA
# B9: chr15:41900134:41900198:-|3pUTR|ENSG00000103966|msi1_unk|FALSE|overlapping (ssRNA)
# RNA: GGGAGUUCUACAGUCCGACGAUCAGGGCACCUGGAGGCAGCAAAGAUUAUCUUAUUUAUUUUAUUUUGUUUUCUGCUAUAUUUAGAGUGGCAAAAAAAUAGAGCAGAGGGUUUCUGCUGUCUCCAGACUGUCUACCAAAGAGACAACAGAGGAUUGAGCAUCA
# B10: chr10:89738052:89738153:+|CDS|ENSG00000138182|unk|total|mutant (ssRNA)
# RNA: GGGAGUUCUACAGUCCGACGAUCCUGGAACAACAAAUUGAAAAAUUGCAGGCAGAAGUAAAAGGCUAUAAGGAUGAAAACAACCGACUAAAGGAGAAGGAGCAUAAAAACCAAGAUGACCUACUAAAAGAAAAAGAAACUCUUCAACAGAGGAUUGAGCAUCA
# B11: ENSG00000198589:be:win_6751|CDS|ENSG00000198589|bound_else_gene|NA|bound_elsewhere_windowed (ssRNA)
# RNA: GGGAGUUCUACAGUCCGACGAUCUUGCCCACCAACUUCAGAGAUUUGUCCAAGCCAAUAGGAGCUCUGAACCCAAAAAGAGCAGCAUUCUUCGCUGAGCGUUAUGAAUCAUGGGAAGAUGAUCAAGUUCCAAAGUUUCACUAUCAACAGAGGAUUGAGCAUCA
# B12: chr1:77728514:77728621:-|CDS|ENSG00000077254|unk|FALSE|unique (ssRNA)
# RNA: GGGAGUUCUACAGUCCGACGAUCAGAUCCGCAAACCAUAACCACUGAGGAGACAAUGGAAGAAGACAAGAGCCAGUCGGAUGUAGAUUUUCAGUCUUGUGAAUCUUGUAGCAACAGUGAUAGAGCAGAAAAUGAAAAUGGCUCCAACAGAGGAUUGAGCAUCA
# B13: chr4:86814747:86814848:+|3pUTR|ENSG00000163629|unk|FALSE|unique (ssRNA)
# RNA: GGGAGUUCUACAGUCCGACGAUCUACUUUAACCUAUGAUAAUUAUUUACAAAAUUUUAACACUAACCAAACAAUGCAGAUCUUAGGGAUGAUUAAAGGCAGCAUUUGAUGAUAGCAGACAUUGUUACAAGGACAUGGUGAGUCCAACAGAGGAUUGAGCAUCA
# B14: chr3:7579146:7579247:+|CDS|ENSG00000196277|unk|FALSE|unique (ssRNA)
# RNA: GGGAGUUCUACAGUCCGACGAUCGCCAGAGGGGUUCUCAAGUGUGACAUUACAGAUCUCCAAAUCAUUUGCUCCUUGGGAUAUAGCAUUCUUCUCAUGGUCACAUGUACUGUGUAUGCCAUCAAGACUCGGGGUGUACCCGAGCAACAGAGGAUUGAGCAUCA
# B15: ENSG00000100242:stop:overlap|stop_codon|ENSG00000100242|stop_codon|NA|stop_codon (ssRNA)
# RNA: GGGAGUUCUACAGUCCGACGAUCGGGGCCACCCCGAGUACACCUGCAUCUACCGCUUCAGAGUGCAUGGGGAGCCCGCCCACUAGCCCUGCUUACUGGUGCCUGCUGCCAGCCAUCUGGGAGUGGGUGAACAGCACCCCGCCGCAACAGAGGAUUGAGCAUCA
# B16: ENSG00000107863:be:win_5551|CDS|ENSG00000107863|bound_else_gene|NA|bound_elsewhere_windowed (ssRNA)
# RNA: GGGAGUUCUACAGUCCGACGAUCGACUGGCUGGCCAGGGAACGCCUACGCACCAGUACCUCUGACCUUAGCAGAGGAGAAAUCGGAGAUCCCCAGACAGAGAACCCAAGCACACGAGAAAUAGCCACGACCGACACACCUUUGCAACAGAGGAUUGAGCAUCA
# B17: ENSG00000151892:stop:overlap|stop_codon|ENSG00000151892|stop_codon|NA|stop_codon (ssRNA)
# RNA: GGGAGUUCUACAGUCCGACGAUCCACUGCUGGUCCUGGUGGUAACCGCUCUGUCCACCCUAUUAUCUUUAACAGAAACAUCAUAGCUGCAUUAAAAAAAUACAAUAUGGACAUGUAAAAAGACAAAAACCAAGUUAUCUGUUUCAACAGAGGAUUGAGCAUCA
# B18: chr12:25205306:25205412:-|3pUTR|ENSG00000133703|unk|FALSE|unique (ssRNA)
# RNA: GGGAGUUCUACAGUCCGACGAUCGUCAUAUCAAACAUUAAAAAUGACCACUCUUUUAAUUGAAAUUAACUUUUAAAUGUUUAUAGGAGUAUGUGCUGUGAAGUGAUCUAAAAUUUGUAAUAUUUUUGUCAUGAACUGUACUACCAACAGAGGAUUGAGCAUCA
# B19: chr17:63354981:63355093:+|CDS|ENSG00000170921|unk|FALSE|bound_elsewhere (ssRNA)
# RNA: GGGAGUUCUACAGUCCGACGAUCCAGUCAAGGGUCCUAUCUAUAUCUGAAACUUACAUUUGACCUCAUAGAGAAAGGCUAUCUAGUGUUAAAGAGCUCUAGCUACAAAGUAGUUCCUGUUUCGCUCUCAGAGGUUUAUUUACUCAACAGAGGAUUGAGCAUCA
# B20: chr18:55223968:55224079:-|3pUTR|ENSG00000196628|unk|total|mutant (ssRNA)
# RNA: GGGAGUUCUACAGUCCGACGAUCUAUAAAGCUUUGUUUGUCCCGUGCUCUUUUGCUAUAAAACCGACUGCCGUACACCCCCGCCGGAAAAAAAAAAAACUAAAUUUAAAAAUAAAAAAUAUAUUUGGCUUAUUUUUCGCAGGACAACAGAGGAUUGAGCAUCA
# B21: chr17:3662948:3663056:-|3pUTR|ENSG00000213977|unk|total|mutant (ssRNA)
# RNA: GGGAGUUCUACAGUCCGACGAUCAGUUUGAUACAAAAUGUUUUUAUCGUACUCUUUGGAGAUGCCCAUUCUACUUUUGAAUUCCGCUUUUACUAAUUCGCAUCUGGAAGCUCAGCAAGUGCACAAGCCUUACUUUGGUUACCGCAACAGAGGAUUGAGCAUCA
# B22: chr10:74120044:74120145:+|3pUTR|ENSG00000035403|msi1|FALSE|unique (ssRNA)
# RNA: GGGAGUUCUACAGUCCGACGAUCAAAAAAAAUCCCUGAAUGAUGAUUAGAGACAUCACCGCUAAAAAACUACAUUUAUAAGCUAGGAUUUGUUAUAUGCAAAUAUUUUCUGCCUCUUCUUUUGUUCUGUUUAAAACAAUAAAACAACAGAGGAUUGAGCAUCA
# Molecular target: MSI1 full-length (mouse, UniProt Q61474 1-362)
# UniProt Q61474, sequence (Q61474 whole entry): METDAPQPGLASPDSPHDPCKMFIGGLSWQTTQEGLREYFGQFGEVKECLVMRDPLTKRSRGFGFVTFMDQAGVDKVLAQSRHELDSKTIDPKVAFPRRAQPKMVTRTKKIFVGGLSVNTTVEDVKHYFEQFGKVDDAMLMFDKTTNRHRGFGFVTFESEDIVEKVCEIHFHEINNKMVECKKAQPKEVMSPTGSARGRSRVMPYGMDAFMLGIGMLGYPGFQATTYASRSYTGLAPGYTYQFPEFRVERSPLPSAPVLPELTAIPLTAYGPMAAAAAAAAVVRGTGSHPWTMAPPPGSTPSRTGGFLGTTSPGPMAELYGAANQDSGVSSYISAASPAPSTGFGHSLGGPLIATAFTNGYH
# Experiment: nsRBNS (natural sequence RNA bind-n-seq); RBNS binding buffer (assumed for nsRBNS): 25 mM Tris pH 7.5, 150 mM KCl, 3 mM MgCl2, 0.01% Triton X-100, 500 ug/ml BSA, 20 U/ml SUPERase-In, 4 C; UNK is unkempt and MSI1 is Musashi-1; names of the RNAs are library labels; protein concentration not given here; high values mean tight binding
row,Binder,binding signal [enrichment R]
1,B1,1.03
2,B2,0.499
3,B3,0.632
4,B4,0.281
5,B5,0.634
6,B6,0.531
7,B7,1.09
8,B8,0.334
9,B9,0.421
10,B10,0.507
11,B11,0.357
12,B12,0.731
13,B13,5.27
14,B14,0.423
15,B15,0.497
16,B16,0.543
17,B17,0.311
18,B18,0.678
19,B19,2.03
20,B20,0.505
21,B21,0.314
22,B22,4.59
